Test results as given in the DeepSol protein solubility set.

Assay: soluble on expression in E. coli; label from the status in PepcDB or PDB records

Row | Sequence | soluble on expression in E. coli
1 | GSTDLFSSPDHTLDALGLRCPEPVMMVRKTVRNMQPGETLLIIADDPATTRDIPGFCTFMEHELVAKETDGLPYRYLIRKGG | soluble
2 | MKFSTVILAAGKGTRMHSNMPKVLHTLAGKPMVKHVIDTCNNLGAQNIHLVYGHGGDQMQQALANENVNWVLQAQQLGTGHAVDQASPHFQDDEKILVLYGDVPLISEDTIESLLEAQPTDGIALLTVVLEDPTGYGRIVRKRGPVVAIVEQKDASEEQKLIKEVNTGVLVATGRDLKRWLAGLNNNNAQGEYYLTDVIAAAHDEGRAVEAVHPSHSIEVEGVNDRIQLARLERAFQARQAKKLLEQGVMLRDPARFDLRGTLQCGSDVEIDVNVIIEGNVSIGNNVVIGAGSILKDCEIDDNTVIRPYSVIEGATVGENCTVGPFTRLRPGAELRDDAHVGNFVEMKNARLGEGSKANHLTYLGDAEIGKGVNVGAGVITCNYDGANKHKTVIGDDVFVGSDCQLVAPVTIGNGATIGAGTTLTKNVAEGELVITRAPERKIAGWQRPAKKK | not soluble
3 | MLVRSCEDVLKIGNYQLKNNLIVAPMAGVTDRPFRELCLRYGAGMAVSEMMSCNPALWKTAKSQNRMVHEGESGIRSVQIAGSDPQLMAEAAQFSVENGAQIIDINMGCPAKKVNKKLAGSALLRYPDVIEDILKAVVNAVNVPVTLKTRTGWDTDNKNCLSIAQLAEDCGIQALALHGRTRACMYKGEAEYDSIKAVKAAVSIPVIANGDIDSPEKARYVLEYTGADALMIGRPAQGRPWIFQEIQHFLEHGTTMPELPISEVKDIMLGHVTALHQFYGEYLGPRIARKHVSWYLQEHEQASAFRRTFNAIETADQQLDALEGYFDNVAS | not soluble
